Data as given in patent US4399125A, “Novel antagonists of the antidiuretic action of arginine vasopressin” (priority 1981, dated 1983).
Part of at least one peptide drawing is inferred or uncertain, most often the ends. *1 amine or outer side, *2 acyl side, *3 side chain or, on linkers, in order; H or OH if unused. Where a SMILES comes first, the peptide text is derived from it. Bridges are numbered along the chain shown (N, C = ends). [ ]: non-standard residue; d: D form. X1 = O=C(CC1(S[*:2])CCCCC1)[*:1]

Legend:
[1] = tested on: vasopressor response to AVP; assay: Antagonism to the vasopressor response (Dyckes et al.); assay type: in vivo; settings: effective dose as defined
Method: Antagonism to the vasopressor response was estimated in accordance with Dyckes et al., J. Med. Chem., vol. 17 (1974) at 969. The values are expressed as pA2 values, defined by Schild et al., Br. J. Pharmacol., vol. 2 (1947) at 189.
(§1) Antagonistic potencies were determined and expressed as "effective doses" and as pA2 values. The "effective dose" is defined as the dose (in nanomoles per kilogram) that reduces the response seen from 2x units of agonist injected 20 min after the dose of antagonist to the response with 1x units of agonist.

[2] = tested on: antidiuretic response to ADH (arginine vasopressin); settings: earlier work of Manning et al. (in press); cited from earlier work
[3] = tested on: antidiuretic response to ADH (arginine vasopressin); assay: Antagonism of the antidiuretic response to ADH (anti-antidiuretic potency) in ethanol-anesthetized water-loaded rats; assay type: in vivo; settings: effective dose: i.v. dose reducing response to 2x units of agonist injected 20 min after antagonist to response with 1x units; ± spread, * = no antidiuretic agonism
Method: Activity as antidiuretic agonists was determined by intravenous injection of compounds being evaluated into ethanol-anesthesized water-loaded rats in accordance with Sawyer et al., Endocrinology, vol. 63 (1958) at 694.
as §1

SMILES: CC(C)[C@@H]1NC(=O)[C@H](Cc2ccccc2)NC(=O)[C@@H](Cc2ccc(O)cc2)NC(=O)CC2(CCCCC2)SSC[C@@H](C(=O)N2CCC[C@H]2C(=O)N[C@@H](CCCNC(=N)N)C(=O)NCC(N)=O)NC(=O)[C@H](CC(N)=O)NC1=O [d(CH2)5 D-Tyr VAVP, [1-(β-mercapto-β,β-cyclopentamethylenepropionic acid), 2-D-tyrosine, 4-valine]-arginine vasopressin] ([dY]FVNCPRG-NH2; linker N-5 via X1)
- Antivasopressor ED [1]: 0.29 ± 0.09 nmol/kg
- anti-antidiuretic activity (in words) [2]: anti-antidiuretics
- Anti-Antidiuretic ED [3]: 2.2 ± 0.2 nmol/kg
